This note sets out measurements from the supplement of paper PMC4967469.

The IC50 comes from the fitted curve, where viability falls to half of the control; fits outside the tested doses are given as limits. AUC, from the same fit, is the share of area under the viability curve across the 256-fold dose range; the more sensitive the line, the further below 1. For some assays here: Where the top dose is marked as inferred, it was calculated from the reported fits. For some assays here: Drugs with an entry number were screened twice under separate entries, and the two screens often disagree. Where only a bound is given, the exact number is not on record here.

Common to all, as to assay: Viability of human cancer cell lines after 72 h of drug (GDSC screen)
Compound in one experiment: Cc1cccc(-c2[nH]c(C(C)(C)C)nc2-c2ccc3c(c2)OCO3)n1 [SB-505124]
The settings on record: top dose 10 µM; top dose inferred. As to the method:
(§1)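 Human cancer cell lines in 384-well plates, medium with 10% serum, drug for 72 h over a 256-fold dose range (nine 2-fold or five 4-fold steps up to the top dose). Adherent lines were fixed and stained with the nucleic acid dye Syto60, suspension lines read with resazurin; signal relative to control wells, capped at 0 and 100%. One two-parameter sigmoid per drug and line, fitted in a mixed model over all curves with the slope shared within a line.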

Compound in another experiment: Oc1cccc(-c2nc(N3CCOCC3)c3oc4ncccc4c3n2)c1 [PI-103]
To be noted: top dose 10.24 µM. How it is done: as §1

Compound in the next experiment: CC1=C(/C=C/C(C)=C/C=C/C(C)=C/C(=O)O)C(C)(C)CCC1 [Tretinoin]
To be noted: top dose 10 µM; top dose inferred. As to the method:
as §1

Compound in another experiment: COc1cc2c(NC3CCN(C(C)C)CC3)nc(C3CCCCC3)nc2cc1OCCCN1CCCC1 [UNC0638]
How it is done:
as §1

Compound in a further experiment: CCn1c(-c2nonc2N)nc2c(C#CC(C)(C)O)ncc(OC[C@H]3CCCNC3)c21 [GSK690693]
To be noted: top dose 10.24 µM; top dose inferred. As to the method:
as §1

Compound in the next experiment: O=C(NCCCNc1nc(Nc2cccc(NC(=O)N3CCCC3)c2)ncc1I)c1cccs1 [BX-795]
The settings on record: top dose 5 µM; top dose inferred. As to the method:
as §1

Setting [1] is: top dose 20 µM, screen: GDSC drug entry 1236, top dose inferred.
Where [2] appears, read: top dose 40 µM, screen: GDSC drug entry 245.

Take “HOP-92 (large cell lung carcinoma, adherent)”: the AUC in the experiment with SB-505124 turned out to be 0.966; with PI-103, 0.984; with Tretinoin, 0.945; with UNC0638 (setting [1]) it was 0.832; with UNC0638 (setting [2]), 0.893; in the experiment with GSK690693 it was 0.984. Further, the IC50 – broadly, the concentration needed to halve the response being measured – with SB-505124 was more than 10 µM; in the experiment with PI-103, more than 10.2 µM; with Tretinoin it was more than 10 µM; with UNC0638 (setting [1]) it was 15.6 µM; with UNC0638 (setting [2]), more than 40 µM; with GSK690693 it was more than 10.2 µM.
With HSC-4 (head and neck, adherent), the AUC was 0.833 with SB-505124; 0.843 in the experiment with PI-103; 0.868 with Tretinoin; 0.851 in the experiment with UNC0638 (setting [1]); 0.965 with UNC0638 (setting [2]); 0.911 in the experiment with GSK690693. For the same cell line, the IC50 is 9.65 µM in the experiment with SB-505124; more than 10.2 µM with PI-103; more than 10 µM in the experiment with Tretinoin; more than 20 µM in the experiment with UNC0638 (setting [1]); more than 40 µM in the experiment with UNC0638 (setting [2]); more than 10.2 µM in the experiment with GSK690693.
On to IGROV-1 (ovary, adherent), for which the AUC came out at 0.973 with SB-505124, 0.878 with BX-795, 0.977 with Tretinoin and 0.973 with UNC0638 (setting [1]). In addition, the IC50 with SB-505124 was more than 10 µM; with BX-795, more than 5 µM; with Tretinoin it was more than 10 µM; with UNC0638 (setting [1]) it was more than 20 µM.
With JEKO-1 (B-cell lymphoma, suspension), the AUC was 0.97 with SB-505124, 0.598 with BX-795, 0.917 with Tretinoin and 0.807 with UNC0638 (setting [1]). Moreover, the IC50 with SB-505124 is more than 10 µM; with BX-795, 0.573 µM; with Tretinoin, more than 10 µM; with UNC0638 (setting [1]), 9.73 µM.
As to JHH-6 (liver, adherent), the AUC came to 0.926 in the experiment with SB-505124; 0.93 in the experiment with PI-103; 0.942 in the experiment with Tretinoin; 0.81 in the experiment with UNC0638 (setting [1]); 0.98 with UNC0638 (setting [2]); 0.987 in the experiment with GSK690693. The concentration for half-maximal inhibition (IC50) in the experiment with SB-505124 was more than 10 µM; in the experiment with PI-103, more than 10.2 µM; with Tretinoin, more than 10 µM; in the experiment with UNC0638 (setting [1]), 10.7 µM; in the experiment with UNC0638 (setting [2]), more than 40 µM; with GSK690693, more than 10.2 µM.
For the cell line JHOS-4 (ovary, adherent), in the experiment with BX-795, the AUC turned out to be 0.98 and the IC50 is more than 5 µM. In the experiment with Tretinoin, the AUC was found to be 0.98 and the IC50 is more than 10 µM.
Regarding JHU-029 (head and neck, adherent), the AUC was found to be 0.956 with SB-505124, 0.903 with BX-795, 0.98 in the experiment with Tretinoin and 0.728 in the experiment with UNC0638 (setting [1]). Further, the IC50 in the experiment with SB-505124 is more than 10 µM; with BX-795, more than 5 µM; with Tretinoin, more than 10 µM; with UNC0638 (setting [1]), 6.57 µM.
Consider Jurkat (T-cell leukaemia, suspension), for which the AUC in the experiment with SB-505124 is 0.992; in the experiment with BX-795, 0.991; with Tretinoin, 0.973; with UNC0638 (setting [1]), 0.783. The IC50 in the experiment with SB-505124 is more than 10 µM; with BX-795, more than 5 µM; with Tretinoin it was more than 10 µM; in the experiment with UNC0638 (setting [1]), 6.87 µM.
For the cell line “KARPAS-1106P (B-cell lymphoma, suspension)”, the AUC with SB-505124 was 0.993; with BX-795, 0.756; with Tretinoin, 0.979; with UNC0638 (setting [1]) it was 0.812. In addition, the IC50 with SB-505124 is more than 10 µM; with BX-795, 1.44 µM; in the experiment with Tretinoin, more than 10 µM; with UNC0638 (setting [1]) it was 8.49 µM.
Turning to KATOIII (stomach, semi-adherent), the AUC was found to be 0.975 with SB-505124, 0.799 in the experiment with BX-795, 0.923 with Tretinoin and 0.905 in the experiment with UNC0638 (setting [1]). Also, the IC50 was more than 10 µM with SB-505124, 2.17 µM with BX-795, more than 10 µM in the experiment with Tretinoin and more than 20 µM with UNC0638 (setting [1]).
Regarding “KNS-62 (lung squamous cell carcinoma, adherent)”, the AUC with SB-505124 is 0.961; with BX-795 it was 0.852; with Tretinoin, 0.962; with UNC0638 (setting [1]) it was 0.939. In addition, the 50% inhibitory concentration (IC50) was more than 10 µM with SB-505124, more than 5 µM with BX-795, more than 10 µM in the experiment with Tretinoin and more than 20 µM in the experiment with UNC0638 (setting [1]).
On to KP-1N (pancreas, adherent), for which the AUC is 0.963 in the experiment with SB-505124, 0.881 in the experiment with BX-795, 0.976 with Tretinoin and 0.734 with UNC0638 (setting [1]). For the same cell line, the 50% inhibitory concentration (IC50) was more than 10 µM with SB-505124, more than 5 µM in the experiment with BX-795, more than 10 µM with Tretinoin and 6.02 µM with UNC0638 (setting [1]).
Consider KYSE-70 (oesophagus, adherent), for which the AUC came out at 0.958 with SB-505124; 0.704 with PI-103; 0.984 in the experiment with Tretinoin; 0.929 with UNC0638 (setting [1]); 0.841 with UNC0638 (setting [2]); 0.968 with GSK690693. Besides, the IC50 with SB-505124 is more than 10 µM; in the experiment with PI-103, 2.55 µM; with Tretinoin, more than 10 µM; with UNC0638 (setting [1]) it was more than 20 µM; in the experiment with UNC0638 (setting [2]), 31.5 µM; with GSK690693 it was more than 10.2 µM.
Consider M14 (melanoma, adherent), for which the AUC with SB-505124 amounted to 0.985; with PI-103, 0.987; with Tretinoin, 0.981; with UNC0638 (setting [1]), 0.818; with UNC0638 (setting [2]) it was 0.59; with GSK690693, 0.987. Moreover, the half-maximal inhibitory concentration (IC50) is more than 10 µM in the experiment with SB-505124; more than 10.2 µM in the experiment with PI-103; more than 10 µM with Tretinoin; 12.1 µM with UNC0638 (setting [1]); 4.47 µM in the experiment with UNC0638 (setting [2]); more than 10.2 µM in the experiment with GSK690693.
